Test results reported in the supplement of paper PMC10126150.
Sequences with one replicate were seen in a single cluster, so their values are uncertain.

Test system: ATP
Test: switch fluorescence ratio, 500 uM ATP over buffer (Cy3 cluster intensity, sum of 5 cycles each) (fold (ratio)); higher = stronger signal-on switching upon ATP binding; sequences stand for … in TCGTCGGCAGCGTCAGATGTGTATAAGAGACAGTTTTTTTTTTTTTTTTTTTTTTTTT…TC
Details: aptamer strand: ATP DNA aptamer (quencher-CACCTGGGGGAGTATTGCGGAGGAAGG + anchor), 100 nM annealed; ATP concentration: 500 uM; one replicate
Outline: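 The fluorescence ratio divides summed target-cycle Cy3 intensity by summed buffer-cycle Cy3 intensity for each cluster and is averaged per switch-domain sequence. Cy3-labelled switching-strand clusters on a modified Illumina MiSeq flow-cell were annealed to 100 nM quencher-labelled ATP aptamer, then imaged in selection buffer and again after 15 min with 500 uM ATP at 22 °C. Five such cycles were run, with NaOH stripping and re-annealing between them, and clusters outside 100-1000 RFU were excluded.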
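Note: ATP exposure 15 min at 22 °C before imaging.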

## TGCATCCGT
  switch fluorescence ratio: 0.986

## TTTTATTGCC
  switch fluorescence ratio: 1

## CTAAGTTAAG
  switch fluorescence ratio: 0.973

## TGTCAAAGGG
  switch fluorescence ratio: 1.03

## CGGTTGTTCC
  switch fluorescence ratio: 0.979

## GGTGCTCGCC
  switch fluorescence ratio: 0.999

## TGATTTCAGA
  switch fluorescence ratio: 0.985

## CCTTGGCGTA
  switch fluorescence ratio: 1.04

## TTTGGTCGGC
  switch fluorescence ratio: 0.986

## ATACTGAGG
  switch fluorescence ratio: 0.952

## AGGGAGTTAC
  switch fluorescence ratio: 0.996

## ATCTCGTTTG
  switch fluorescence ratio: 0.934

## GCGTCACAGC
  switch fluorescence ratio: 1.06

## GTAGCCGATG
  switch fluorescence ratio: 1

## GCTCCAATCC
  switch fluorescence ratio: 1.73

## CTCCGAATTA
  switch fluorescence ratio: 4.24

## CATCGTATTT
  switch fluorescence ratio: 0.999

## TAGACATCTC
  switch fluorescence ratio: 0.969

## CAAAGCATAA
  switch fluorescence ratio: 1.49

## ACGTATTGAA
  switch fluorescence ratio: 1.1

## AACCTCGCGC
  switch fluorescence ratio: 1.95

## AGCAGGGGAG
  switch fluorescence ratio: 0.993

## TTGATGGATT
  switch fluorescence ratio: 1.04

## ATCGGAGATG
  switch fluorescence ratio: 0.946

## TCGGGCACTG
  switch fluorescence ratio: 1.05

## AACTGTTGGC
  switch fluorescence ratio: 1.01

## GGCGAAGTAA
  switch fluorescence ratio: 1.07

## AATGTCTAGT
  switch fluorescence ratio: 1.01

## ATAACGGGCG
  switch fluorescence ratio: 1.05

## GCTGTGAGCG
  switch fluorescence ratio: 1.02

## GAGTTACCCT
  switch fluorescence ratio: 1.01

## GTCTAGTCTG
  switch fluorescence ratio: 0.973

## TTATTTCCT
  switch fluorescence ratio: 1.04

## CTGTTATTAT
  switch fluorescence ratio: 0.979

## TGAAAAGCCG
  switch fluorescence ratio: 1.08

## ATTATGTTAG
  switch fluorescence ratio: 0.962

## CAGGGGTCG
  switch fluorescence ratio: 1.03

## GCTCTTAATT
  switch fluorescence ratio: 0.981

## TAGGACCGAC
  switch fluorescence ratio: 1.43

## GGTAGTCTTA
  switch fluorescence ratio: 0.948

## ATTGGGGCTC
  switch fluorescence ratio: 1.02

## CCCGGTCCGT
  switch fluorescence ratio: 1.03

## ACTCGTCGCT
  switch fluorescence ratio: 1.05

## ACCGTTTTTG
  switch fluorescence ratio: 0.988

## GTTTATGAAC
  switch fluorescence ratio: 1.18

## CAGCGATAAT
  switch fluorescence ratio: 1.51

## TAAGTAGAGA
  switch fluorescence ratio: 0.977

## GAATTTAAGG
  switch fluorescence ratio: 0.997

## AAGATGACTT
  switch fluorescence ratio: 1.01

## AGCCCTATTC
  switch fluorescence ratio: 0.966

## CTGAGGTAAC
  switch fluorescence ratio: 2.09

## GCTGGATCTG
  switch fluorescence ratio: 0.981

## GGACTAGGCG
  switch fluorescence ratio: 1.04

## AGTAATGGAT
  switch fluorescence ratio: 0.972

## GTTGTTACGA
  switch fluorescence ratio: 0.971

## TGACGATGAT
  switch fluorescence ratio: 0.963

## CGGCCTTTCT
  switch fluorescence ratio: 1.01

## CCGTGTACC
  switch fluorescence ratio: 1.38

## TTCAAACCGT
  switch fluorescence ratio: 1.07

## TTGACAGAGC
  switch fluorescence ratio: 1.05

## GTGAATAATC
  switch fluorescence ratio: 1.02

## GAGACCGCAT
  switch fluorescence ratio: 4.45

## TCGTCAGTA
  switch fluorescence ratio: 1.01

## GAGTGGGTCC
  switch fluorescence ratio: 1.02

## GCCCCCTT
  switch fluorescence ratio: 1.03

## TTAACGGAAT
  switch fluorescence ratio: 1.05

## ACCGGGCTAG
  switch fluorescence ratio: 1.08

## ACCAGTCATC
  switch fluorescence ratio: 1.04

## GGAAATAGAG
  switch fluorescence ratio: 1.04

## TTACGATCGT
  switch fluorescence ratio: 1.01

## GATATGCATC
  switch fluorescence ratio: 1.02

## TGTAGATAGT
  switch fluorescence ratio: 1.01

## TGGTGGTTG
  switch fluorescence ratio: 0.999

## CAAGAATTAG
  switch fluorescence ratio: 0.931

## AAATGTGGTA
  switch fluorescence ratio: 0.97

## CTAGCTCCG
  switch fluorescence ratio: 1.08

## GTAAATGAGG
  switch fluorescence ratio: 1.01

## AGTTTTAAAG
  switch fluorescence ratio: 1.04

## AGGGGTGGCC
  switch fluorescence ratio: 1.01

## CAGACTTACT
  switch fluorescence ratio: 1.19

## CCACCCCTTA
  switch fluorescence ratio: 1.05

## ACTTTAGCTT
  switch fluorescence ratio: 1.04

## TGATTTTATA
  switch fluorescence ratio: 0.98

## CTCAGCGGAG
  switch fluorescence ratio: 1.08

## GACTGATTTT
  switch fluorescence ratio: 0.987

## CACTTGAATT
  switch fluorescence ratio: 0.995

## CGTTAGAGTC
  switch fluorescence ratio: 1.03

## ACGATTTATA
  switch fluorescence ratio: 1.02

## TAGTCGGCTC
  switch fluorescence ratio: 1.01

## GGTATCAGAG
  switch fluorescence ratio: 1.02

## GGGATGAGAT
  switch fluorescence ratio: 0.988

## CCTCGATTTA
  switch fluorescence ratio: 1.02

## ACAAATTCCT
  switch fluorescence ratio: 1.1

## TGTACAAGGT
  switch fluorescence ratio: 1.01

## GATCTTTG
  switch fluorescence ratio: 0.978

## TATCGACTAT
  switch fluorescence ratio: 0.98

## CATGGCGGTT
  switch fluorescence ratio: 0.987

## GTATTCTTGG
  switch fluorescence ratio: 0.965

## GGGGAGCCAG
  switch fluorescence ratio: 0.995

## AACGTTTGT
  switch fluorescence ratio: 0.986

## GGAGCGGTTC
  switch fluorescence ratio: 2.18

## GCGGATTTTG
  switch fluorescence ratio: 1.02

## CATTTGCTGT
  switch fluorescence ratio: 0.968

## AGATGCAGGC
  switch fluorescence ratio: 1.02

## TGCGCACCAT
  switch fluorescence ratio: 1.03

## TGGCGAGCT
  switch fluorescence ratio: 1.01

## TCTCAACTGT
  switch fluorescence ratio: 0.958

## AGAATTTTAC
  switch fluorescence ratio: 1.03

## ACGGAGTTAA
  switch fluorescence ratio: 1.01

## TGTGTAGTCT
  switch fluorescence ratio: 1.05

## AAAAACGAAA
  switch fluorescence ratio: 0.94

## GGTCTTAATG
  switch fluorescence ratio: 1.02

## TATAAACT
  switch fluorescence ratio: 1

## GGCTAAAGGT
  switch fluorescence ratio: 1

## TATTCCAGGT
  switch fluorescence ratio: 1.17

## GTTAACAAGG
  switch fluorescence ratio: 1.01

## TGACTTGGTA
  switch fluorescence ratio: 0.941

## CGGACACGGC
  switch fluorescence ratio: 0.945

## AGTTCTGTTA
  switch fluorescence ratio: 1.01

## CTACGAGCAG
  switch fluorescence ratio: 1.12

## ACCATATGTA
  switch fluorescence ratio: 1.01

## GCTTGTGACT
  switch fluorescence ratio: 0.94

## AGAGTCAGAG
  switch fluorescence ratio: 0.983

## GGCCAGACGG
  switch fluorescence ratio: 0.995

## ACCTAGTGGC
  switch fluorescence ratio: 1.07

## TCTTTATGAG
  switch fluorescence ratio: 0.986

## GGTAATATTC
  switch fluorescence ratio: 1.04

## AAGGCTGCGT
  switch fluorescence ratio: 0.968

## TGTTACCGGA
  switch fluorescence ratio: 1.09

## CGGATGTGCC
  switch fluorescence ratio: 0.993

## CTGAAGGTTA
  switch fluorescence ratio: 0.975

## AATCATCGTT
  switch fluorescence ratio: 0.97

## ATGAGGACAT
  switch fluorescence ratio: 1.02

## TAAGCCACTG
  switch fluorescence ratio: 1.04

## ACATCTAGCT
  switch fluorescence ratio: 0.998

## CCTGAACTGT
  switch fluorescence ratio: 0.989

## CGGGTACAGT
  switch fluorescence ratio: 0.98

## CTGAGAAGGG
  switch fluorescence ratio: 0.968

## TTTAACATGT
  switch fluorescence ratio: 1.06

## CGTGGGATGG
  switch fluorescence ratio: 1.01

## GCCGAAGGTC
  switch fluorescence ratio: 0.95

## GGTATTGTCG
  switch fluorescence ratio: 0.946

## CCACGCTGTT
  switch fluorescence ratio: 1.16

## TTCGTTCGGC
  switch fluorescence ratio: 1.03

## AAAAATTCTA
  switch fluorescence ratio: 1.07

## GGTGACATTG
  switch fluorescence ratio: 1.03

## CACGGTCCTA
  switch fluorescence ratio: 0.978

## GGACTACGGG
  switch fluorescence ratio: 1.05

## AAGGAGAAAA
  switch fluorescence ratio: 1.01

## ATCTTTTGGA
  switch fluorescence ratio: 1.03

## GCATTGAGT
  switch fluorescence ratio: 0.976

## TTTATTCGCA
  switch fluorescence ratio: 1.1

## TTCCAAGGTC
  switch fluorescence ratio: 0.961

## GGTAGCTCTT
  switch fluorescence ratio: 0.978

## CCCACTGTTG
  switch fluorescence ratio: 1.33

## CGGTACTGAG
  switch fluorescence ratio: 1.03

## GTTTCCATAT
  switch fluorescence ratio: 0.977

## CGGGTGGATC
  switch fluorescence ratio: 1.01

## TATAAATCG
  switch fluorescence ratio: 0.974

## TCGGGTTCGT
  switch fluorescence ratio: 1.02

## ATGACCAGGG
  switch fluorescence ratio: 1.12

## CGAAAGGGAA
  switch fluorescence ratio: 0.985

## TATCATAACG
  switch fluorescence ratio: 1.02

## CGTTAAGTAA
  switch fluorescence ratio: 1.03

## TCTGTCATCT
  switch fluorescence ratio: 0.985

## AAGCCGGGGA
  switch fluorescence ratio: 1

## AAAGCTGTTG
  switch fluorescence ratio: 1.02

## AAATAGAGTC
  switch fluorescence ratio: 1.01

## ATTGAATCAA
  switch fluorescence ratio: 0.992

## GTTATCATCA
  switch fluorescence ratio: 0.992

## AGATAGGGG
  switch fluorescence ratio: 1.01

## AAACCTTATT
  switch fluorescence ratio: 1.15

## CCGAACCATT
  switch fluorescence ratio: 1.35

## TTACAATTAA
  switch fluorescence ratio: 1.05

## CTGGTCAAAA
  switch fluorescence ratio: 0.978

## TTAAAAGGCG
  switch fluorescence ratio: 1

## AATGAATCGG
  switch fluorescence ratio: 1.04

## GCATAGTGCG
  switch fluorescence ratio: 1.01

## TATCTGGTTG
  switch fluorescence ratio: 0.937

## AGGTAGGGC
  switch fluorescence ratio: 0.983

## CTATGTTTCA
  switch fluorescence ratio: 0.981

## TGGACTAACT
  switch fluorescence ratio: 1.13

## CAGGCAGAGT
  switch fluorescence ratio: 1.01

## GCGTTAGCGA
  switch fluorescence ratio: 0.954

## GGATTCGTCA
  switch fluorescence ratio: 1

## ACAGGTATTT
  switch fluorescence ratio: 0.977

## TATGGTAGTT
  switch fluorescence ratio: 1.07

## TTCTTGAGGA
  switch fluorescence ratio: 0.966

## AGCGTATTTG
  switch fluorescence ratio: 0.999

## ACAGCTGAAC
  switch fluorescence ratio: 1.21

## TCCCCTTGAA
  switch fluorescence ratio: 1.39

## CGTGTGAAGC
  switch fluorescence ratio: 1.03

## GACTCTCTTG
  switch fluorescence ratio: 1

## ACAGTAAAGC
  switch fluorescence ratio: 1.14

## TGTTCATGC
  switch fluorescence ratio: 1.21

## GGTTAAGGCT
  switch fluorescence ratio: 1.02

## GGCAAGTGGA
  switch fluorescence ratio: 1.02

## GAGGGTGCTA
  switch fluorescence ratio: 0.996

## CGGGATGGTA
  switch fluorescence ratio: 1.02

## CTGAAGAATG
  switch fluorescence ratio: 0.991

## TTCCGAATAT
  switch fluorescence ratio: 1.09
